Data taken from PubChem BioAssay AID463173 (ICCB-Longwood Screening Facility, Harvard Medical School, 2010).
Out of some 52,000 compounds screened, about 1,700 (3.3%) were called active. Rule as the data show it: active = survival mostly below about 52% (no sharp cut-off); inactive = mostly above about 56%. This is one part of the list.

tested on: Wild type; assay: S. aureus survival, RN4220 and DeltatarO strains – OD600, teichoic acid synthesis inhibitors, primary screen (AID 463173); settings: S. aureus RN4220 wild type/DeltatarO growth, OD600, 18 h, stronger effect = lower value, screened at 18.75 µg/mL (by protocol)

Q: `CCOc1ccc2nc(N3CCCC(C(=O)NCCc4ccc(C)cc4)C3)sc2c1` (stereo not given) was tested. Which survival did it give?
A: The survival was inactive: 76%.

Q: `Cc1cccc(Cn2c(=O)n(Cc3ccccc3)c(=O)c3sc4ccccc4c32)c1` was tested. Which survival did it give?
A: Its survival is inactive: 83%.

Q: Which survival does the source give for `CCCCn1c(CNC(=O)C23CC4CC(CC(C4)C2)C3)nnc1SCC(=O)Nc1ccc(F)cc1` here?
A: Its survival is inactive: 68%.

Q: For `Cc1cccc(NC(=O)Nc2nnc(N3CCCC3)s2)c1`, which survival is on record?
A: Its survival is inactive: 98%.

Q: Which survival does the source give for `Cc1ccc(NC(=O)C2CCCN2S(=O)(=O)c2ccc3nc(-c4ccccc4)[nH]c3c2)cc1C` (stereo not given) here?
A: The survival was inactive: 96%.

Q: Which survival does the source give for `Cc1cc(C(=O)NCc2ccccc2)c2c(C)nn(-c3cccc(Cl)c3C)c2n1` here?
A: The survival was inactive: 159%.

Q: Which survival does the source give for `O=C(NCCS(=O)(=O)N1CCN(c2ccccc2F)CC1)C1CC(=O)N(c2ccc(F)cc2)C1` (stereo not given) here?
A: Its survival is inactive: 138%.

Q: How did the survival turn out when `COC(=O)C1=C(C)NC2=C(C(=O)c3ccccc32)C1c1ccc(O)c(OC)c1` (stereo not given) was run?
A: The survival was inactive: 109%.

Q: Which survival does the source give for `Cc1ccc(S(=O)(=O)C(CNS(=O)(=O)c2ccc(F)c(C)c2)c2cccs2)cc1` (stereo not given) here?
A: Its survival is inactive: 88%.

Q: For `N#CSc1ccc2nc(N)sc2c1`, which survival is on record?
A: The survival was inactive: 93%.

Q: With `CCc1ccccc1N(CC)C(=O)Cn1nc(Cc2ccncc2)c2ccccc2c1=O` as the compound, how does the survival read?
A: The survival was inactive: 91%.

Q: For `Cc1ccc(-n2cnc3cc(C(=O)NCCC4=CCCCC4)ccc32)cc1Cl`, which survival is on record?
A: Its survival is inactive: 101%.

Q: With `Cc1cccc(NC(=O)COc2ccc3oc4c(c3c2)CCCC4)c1` as the compound, how does the survival read?
A: The survival was inactive: 48%.

Q: How did the survival turn out when `Cc1ccc(OCC(=O)Nc2cccc3ccc(C)nc23)c(C)c1` was run?
A: Its survival is inactive: 70%.

Q: How did the survival turn out when `O=C(CCc1nc(-c2cccs2)no1)Nc1ccc([N+](=O)[O-])cc1` was run?
A: Its survival is inactive: 81%.

Q: How did the survival turn out when `CC(C)OC(=O)CSc1nnnn1C` was run?
A: The survival was inactive: 93%.

Q: How did the survival turn out when `COc1ccc(CNC(=O)C(=O)NCC(c2cccs2)S(=O)(=O)c2cccs2)cc1` (stereo not given) was run?
A: The survival was inactive: 68%.

Q: `COc1ccc(Cl)cc1NC(=O)Cn1nc(C(F)(F)F)cc1C` was tested. Which survival did it give?
A: Its survival is inactive: 108%.

Q: With `Cn1c(/C(C#N)=C/c2ccc(C(F)(F)F)cc2)nc2ccccc21` as the compound, how does the survival read?
A: The survival was inactive: 91%.

Q: How did the survival turn out when `CCOc1ccccc1NC(=O)Cn1nc(N2CCN(c3ccccc3)CC2)ccc1=O` was run?
A: The survival was inactive: 99%.

Q: With `O=C(NCc1ccccc1Cl)c1ccc(-n2cnc3cccnc32)cc1` as the compound, how does the survival read?
A: The survival was inactive: 70%.

Q: For `CCC(NC(=O)Nc1cccc(C)c1)c1c(-n2cccc2)sc2c1CCN(C)C2` (stereo not given), which survival is on record?
A: Its survival is inactive: 78%.

Q: Which survival does the source give for `O=C(CCC1N=C2c3ccccc3N=C(SCC(=O)NCCc3ccccc3)N2C1=O)NCc1ccc(F)cc1` (stereo not given) here?
A: Its survival is inactive: 65%.

Q: Which survival does the source give for `Cc1ccc(CNC(=O)CSCc2nc(-c3cccc(C)c3)oc2C)cc1` here?
A: Its survival is active: -1%.

Q: How did the survival turn out when `Cc1cn2c(=O)c(S(=O)(=O)NCc3ccc(F)cc3)c(C)nc2s1` was run?
A: The survival was inactive: 83%.
